Measurements reported in PubChem BioAssay (NCI).
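These data come from cells grown in 96-well plates and exposed to compound for 48 hours at five concentrations. GI50 is the concentration that inhibits growth by half. TGI is the concentration that stops growth completely.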

Tested on: NCI-H322M lung
Assay: inhibition of tumour cell growth, NCI panel, 48 h

Cn1cc(-c2cc3nc(-c4cn(C)c5ncccc45)cc(N)n3n2)c2cc(Cl)ccc21
GI50: 2.76 µM
TGI: 10.3 µM

CN(C(=O)c1ccc(C(F)(F)F)cc1C(F)(F)F)c1sc2c(c1C#N)CCC(=O)C2
GI50: 16.8 µM
TGI: 34.9 µM
